Out of some 150,000 compounds screened, about 6,500 (4.3%) were called active. Inconclusive means that the source gave no clear call. Such entries were picked first, then a sample of the others. Calls come from the whole dose curve; as a rule, active = well fitted inhibition curve with a large enough effect (not every such curve was filed as active); inconclusive = small, poorly fitted or top-dose-only effect, or another doubt; inactive = no such curve, though single readings can be large or run the other way. No potency is given beside an inconclusive call; the fits are too rough.
Each compound was assayed against 15-hydroxyprostaglandin dehydrogenase [NAD(+)] (Homo sapiens) (UniProt P15428) (assay: qHTS Assay for Inhibitors of HPGD (15-Hydroxyprostaglandin Dehydrogenase)). Conditions: purified HPGD, NADH fluorescence kinetic, PGE2 substrate; activity change, negative = inhibition: active compounds read low.
UniProt P15428, sequence (P15428 whole entry, looked up): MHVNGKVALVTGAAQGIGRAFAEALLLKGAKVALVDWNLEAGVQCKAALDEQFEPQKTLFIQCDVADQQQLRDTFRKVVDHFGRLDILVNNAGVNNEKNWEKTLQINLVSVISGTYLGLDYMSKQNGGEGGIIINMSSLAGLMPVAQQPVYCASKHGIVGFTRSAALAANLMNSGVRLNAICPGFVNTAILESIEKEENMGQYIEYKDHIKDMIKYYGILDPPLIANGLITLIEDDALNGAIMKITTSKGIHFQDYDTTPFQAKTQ
In short: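 20 nM HPGD preincubated 15 min at room temperature with compound in 50 mM Tris-HCl pH 8, 0.01% Tween 20. Started with 1 mM NAD+ and 30 uM prostaglandin E2; NADH fluorescence (360/450 nm) read 5 times over 30-s intervals, last minus first.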
% is set by controls: 0 for no effect and ±100 for the full control effect; potency is the fitted concentration of half-maximal effect; tags give direction and shape of the fitted curve.

Q: `O=C(Cn1cnc2c(oc3ccccc32)c1=O)N1CCCc2ccccc21` was tested. Which activity change, negative = inhibition did it give?
A: Its activity change, negative = inhibition is inactive: -7%.

Q: With `COc1ccccc1NC(=S)NNC(=O)c1ccccc1Br` as the compound, how does the activity change, negative = inhibition read?
A: Its activity change, negative = inhibition is inactive: -11.4%.

Q: With `S=c1[nH]nc(Cc2cccs2)n1-c1cccc2ccccc12` as the compound, how does the Potency read?
A: Its Potency is active: 25.1 µM.

Q: For `Cc1ccc(N=C2N=C(N)c3ccccc32)c(C)c1`, which activity change, negative = inhibition is on record?
A: Its activity change, negative = inhibition is inactive: -16.6%.

Q: `COc1ccccc1-c1nccc(NCc2cnc(C)cn2)n1` was tested. Which activity change, negative = inhibition did it give?
A: The activity change, negative = inhibition was inactive: -16.6%.

Q: Which activity change, negative = inhibition does the source give for `CCCCOc1ccc(C(=O)NC(=S)Nc2ccc(CN3CCOCC3)cc2)cc1` here?
A: Its activity change, negative = inhibition is inactive: 0.751%.

Q: Which activity change, negative = inhibition does the source give for `N#C/C(=C\c1ccc(OC(=O)c2ccc(Br)s2)cc1)c1nc2ccccc2[nH]1` here?
A: Its activity change, negative = inhibition is inactive: -13.7%.

Q: Which Potency does the source give for `CCCC(=O)NC(c1ccc(N(C)C)cc1)c1c(O)ccc2ccccc12` (stereo not given) here?
A: The Potency was inconclusive [inhibitor, single point].

Q: For `Cc1ccc(-c2cc(C(=O)Nc3ccc(S(=O)(=O)Nc4cc(C)on4)cc3)c3ccccc3n2)c(C)c1`, which activity change, negative = inhibition is on record?
A: Its activity change, negative = inhibition is inactive: -25.6%.

Q: For `CS(=O)(=O)N1CCC2(CC1)CN(C(=O)Nc1cccc(C#N)c1)C2`, which Potency is on record?
A: The Potency was inconclusive [inhibitor, partial curve].

Q: For `COc1ccc(-c2cc(=O)c3cc(F)ccc3[nH]2)cc1`, which Potency is on record?
A: Its Potency is inconclusive [inhibitor, partial curve].

Q: With `COc1cccc(OCCn2cc(C(=O)c3ccco3)c3ccccc32)c1` as the compound, how does the Potency read?
A: Its Potency is inconclusive [inhibitor, single point].

Q: Which Potency does the source give for `COc1cc(CNc2cccc(C(=O)O)c2)cc(Br)c1OCC(=O)NC(C)(C)C` here?
A: Its Potency is inconclusive [inhibitor, partial curve].

Q: With `O=C(c1ccc(Nc2cccc(C(F)(F)F)c2)nc1)N1CCCC1` as the compound, how does the Potency read?
A: The Potency was inconclusive [inhibitor, full curve].

Q: Which Potency does the source give for `CC(=O)Nc1ccc(S(=O)(=O)n2nc(-c3ccc(C)cc3)nc2N)cc1` here?
A: Its Potency is active: 6.31 µM.

Q: How did the Potency turn out when `O=[N+]([O-])c1cc(/C=N/O)ccc1SCc1ccccc1` was run?
A: Its Potency is inconclusive [inhibitor, single point].

Q: Which Potency does the source give for `O=C(N/N=C/c1ccc(OCC(=O)N2CCCCC2)cc1)c1ccccc1` here?
A: The Potency was active: 14.1 µM.

Q: For `CC(C)OC(=O)CC(=O)CSc1nc2c(cc1C#N)CCC2`, which Potency is on record?
A: The Potency was inconclusive [inhibitor, partial curve].

Q: Which Potency does the source give for `CN(C)c1ncc2nc(-c3ccc(F)cc3)c(=O)n(CCC#N)c2n1` here?
A: Its Potency is inconclusive [inhibitor, partial curve].

Q: How did the activity change, negative = inhibition turn out when `CCN(CC)C(=O)c1sc(N)c(C#N)c1C` was run?
A: The activity change, negative = inhibition was inactive: -13.4%.

Q: With `CCc1cc(SC#N)cc(C)c1NC(=O)CCl` as the compound, how does the Potency read?
A: The Potency was active: 15.8 µM.

Q: For `CCOCCCNc1nc2c(-c3ccccc3)nnn2c2ccccc12`, which Potency is on record?
A: Its Potency is inconclusive [inhibitor, partial curve].

Q: For `COc1ccc(Nc2nc(N)nc(CSc3n[nH]c(-c4ccccc4)n3)n2)cc1`, which Potency is on record?
A: Its Potency is active: 22.4 µM.

Q: `CC(C)(C)SCCNC(=O)c1cccc([N+](=O)[O-])c1` was tested. Which Potency did it give?
A: Its Potency is inconclusive [inhibitor, partial curve].

Q: How did the Potency turn out when `O=C(Nc1ccc(C(=O)N2CCCC2)cc1)c1ccccc1F` was run?
A: The Potency was active: 3.16 µM.

Q: With `CCc1cc[n+](-c2nc([O-])sc2C=O)cc1` as the compound, how does the activity change, negative = inhibition read?
A: Its activity change, negative = inhibition is inactive: -9.94%.

Q: How did the Potency turn out when `O=C1OCCN1C(=O)[C@H]1[C@H](c2ccccc2)C(c2cccc(Cl)c2)=NN1c1ccc(Br)cc1` was run?
A: Its Potency is inconclusive [inhibitor, partial curve].

Q: How did the Potency turn out when `COc1ccc(-c2noc(CSc3nc(-c4ccccc4)cc(=O)[nH]3)n2)cc1OC` was run?
A: Its Potency is inconclusive [inhibitor, partial curve].

Q: How did the Potency turn out when `Cc1nc2nc(NCc3cccs3)nn2c(C)c1Cl` was run?
A: Its Potency is inconclusive [inhibitor, partial curve].

Q: `COc1ccc(-c2nc3ccccc3c(=O)n2CCOc2cc(C)ccc2C)cc1` was tested. Which Potency did it give?
A: Its Potency is inconclusive [inhibitor, partial curve].

Q: Which Potency does the source give for `O=C(O)CCC(=O)Nc1ccc(C(=O)N2CCCCC2)cc1` here?
A: The Potency was active: 0.708 µM.

Q: How did the Potency turn out when `O=C(NCc1ccco1)c1sc2ccccc2c1Cl` was run?
A: The Potency was active: 15.8 µM.

Q: How did the Potency turn out when `O=C(O)CNC(=O)c1ccccc1O` was run?
A: The Potency was inconclusive [inhibitor, partial curve].

Q: Which activity change, negative = inhibition does the source give for `CN(C)c1ccc(C(CNC(=O)c2ccccc2Br)c2c[nH]c3ccccc23)cc1` (stereo not given) here?
A: Its activity change, negative = inhibition is inactive: -5.67%.

Q: With `O=C(N/N=C/c1ccc(-c2cccc(C(F)(F)F)c2)o1)c1cccc(F)c1` as the compound, how does the Potency read?
A: Its Potency is inconclusive [inhibitor, partial curve].

Q: With `O=S(=O)(Nc1ccc(Cl)cc1Cl)c1cc(Cl)ccc1Cl` as the compound, how does the Potency read?
A: Its Potency is inconclusive [inhibitor, single point].

Q: `CCC1C(=O)c2ccccc2N(C)C1=O` (stereo not given) was tested. Which Potency did it give?
A: Its Potency is inconclusive [inhibitor, partial curve].

Q: Which Potency does the source give for `O=c1[nH]c2[nH]c(=S)[nH]c(=S)c2[nH]1` here?
A: Its Potency is active: 3.55 µM.

Q: Which Potency does the source give for `CCOC(=O)c1sc(NC(=O)c2ccc(S(=O)(=O)N(C)C)cc2)cc1C` here?
A: Its Potency is inconclusive [inhibitor, partial curve].

Q: How did the Potency turn out when `CCCCc1ccc(NC(=O)C2CCCO2)cc1` (stereo not given) was run?
A: Its Potency is active: 15.8 µM.

Q: `CCSc1nc2cc(OC)c(OC)cc2c(=O)n1CC` was tested. Which activity change, negative = inhibition did it give?
A: The activity change, negative = inhibition was inactive: -12.7%.

Q: Which activity change, negative = inhibition does the source give for `C=CCOc1c(Cl)cc(CNc2ccc3[nH]c(=O)[nH]c3c2)cc1OC` here?
A: The activity change, negative = inhibition was inactive: -11%.

Q: How did the Potency turn out when `C/C(=N\NC(=O)c1csc(C)c1C)c1ccc(C)s1` was run?
A: The Potency was active: 14.1 µM.

Q: With `CC(C)Oc1ccc(C(=O)N2CCCc3ccccc32)cc1` as the compound, how does the Potency read?
A: The Potency was active: 22.4 µM.

Q: `CCOC(=O)/C(=C/c1c(C)n(C)c2ccc([N+](=O)[O-])cc12)C(C)=O` was tested. Which activity change, negative = inhibition did it give?
A: The activity change, negative = inhibition was inactive: -26.9%.

Q: `O=C(c1ccc(-c2ccccc2)cc1)N1CCCC1` was tested. Which Potency did it give?
A: The Potency was active: 1.58 µM.

Q: For `CC(=O)C1=C(C)NC(SCC(=O)c2ccc(F)cc2)=C(C#N)C1c1ccco1` (stereo not given), which Potency is on record?
A: The Potency was active: 25.1 µM.

Q: For `COc1ccccc1CC(=O)Nc1cc2oc3ccccc3c2cc1OC`, which Potency is on record?
A: The Potency was inconclusive [inhibitor, single point].

Q: With `COc1cc(/C=C/C(=O)OCC(=O)NC2CCS(=O)(=O)C2)ccc1O` (stereo not given) as the compound, how does the activity change, negative = inhibition read?
A: The activity change, negative = inhibition was inactive: -19.9%.

Q: Which Potency does the source give for `NC(=O)c1ccsc1NC(=O)c1ccc(S(=O)(=O)N2CCCCC2)cc1` here?
A: The Potency was inconclusive [inhibitor, single point].

Reference: PubChem BioAssay AID894 (National Center for Advancing Translational Sciences (NCATS), 2007)
